The list shows a part of the results.
Assays:
[1] = test system: HSkMC (human skeletal muscle cells); assay: cytotoxicity call (relative viability < 0.9); conditions: 10 µM
[2] = test system: HepG2; assay: cytotoxicity call (relative viability < 0.9); conditions: 10 µM
[3] = test system: S. aureus RN4220; assay: growth inhibition call (relative growth <= 0.2); conditions: 50 µM

COc1ccc(S(=O)(=O)N(C)C[C@@H]2Oc3ccc(NC(=O)CCN4CCOCC4)cc3C(=O)N([C@H](C)CO)C[C@H]2C)cc1
inactive: cytotoxicity call [1] | cytotoxicity call [2] | growth inhibition call [3]

COc1ccc(NC(=O)Nc2ccc3c(c2)CC(=O)N([C@@H](C)CO)C[C@@H](C)[C@H](CN(C)C(=O)Nc2ccc(C(F)(F)F)cc2)O3)cc1
inactive: cytotoxicity call [1] | cytotoxicity call [2] | growth inhibition call [3]

C[C@H](CO)N1C[C@H](C)[C@@H](CN(C)Cc2ccc(C(F)(F)F)cc2)OCCCC[C@H](C)Oc2ccc(NS(=O)(=O)c3cn(C)cn3)cc2C1=O
inactive: cytotoxicity call [1] | cytotoxicity call [2] | growth inhibition call [3]

NCCNC(=O)c1ccc(Cl)cn1
inactive: cytotoxicity call [1] | cytotoxicity call [2] | growth inhibition call [3]

CNCC(O)C(O)C(O)C(O)CO (stereo not given)
inactive: cytotoxicity call [1] | cytotoxicity call [2] | growth inhibition call [3]

C[C@H]1CCCCO[C@H](CN(C)C(=O)c2ccccc2)[C@@H](C)CN([C@@H](C)CO)C(=O)c2cc(NS(=O)(=O)c3ccc(F)cc3)ccc2O1
inactive: cytotoxicity call [1] | cytotoxicity call [2] | growth inhibition call [3]

CO[C@H]1CN(C)C(=O)c2cc(NC(=O)Nc3cccc(Cl)c3)ccc2OC[C@H](C)N(C(=O)Nc2c(C)noc2C)C[C@H]1C
inactive: cytotoxicity call [1] | cytotoxicity call [2] | growth inhibition call [3]

CS(=O)(=O)Nc1ccc2c(c1)[C@H]1C[C@H](CC(=O)NCC3CC3)O[C@H](CO)[C@H]1O2
inactive: cytotoxicity call [1] | cytotoxicity call [2] | growth inhibition call [3]

COc1ccc(S(=O)(=O)N(C)C[C@@H]2Oc3ccc(NC(=O)CCN4CCOCC4)cc3CC(=O)N([C@@H](C)CO)C[C@H]2C)cc1
inactive: cytotoxicity call [1] | cytotoxicity call [2] | growth inhibition call [3]

CCS(=O)(=O)N[C@@H]1CC[C@@H](CC(=O)NCC2CC2)O[C@H]1CO
inactive: cytotoxicity call [1] | cytotoxicity call [2] | growth inhibition call [3]
